{"source": "PubChem BioAssay AID624417", "about": "(National Center for Advancing Translational Sciences (NCATS), 2012)", "note": "Among all 410,000 compounds or so, about 6,400 (1.6%) were called active. This list was built around the results that the source calls inconclusive (neither active nor inactive); the mix of calls is not that of the screen. The call rests on the fitted dose curve; in most records, active means well fitted inhibition curve with a large enough effect; inconclusive means small, poorly fitted or top-dose-only effect; inactive means no such curve, though single readings can be large or run the other way. No potency is given beside an inconclusive call; the fits are too rough. Potency means the concentration at half of the fitted maximal effect; tags describe the fitted curve by direction and shape."}
{"molecular_target": "Glucagon-like peptide 1 receptor (Homo sapiens) (UniProt P43220)", "sequence (P43220 whole entry, looked up)": "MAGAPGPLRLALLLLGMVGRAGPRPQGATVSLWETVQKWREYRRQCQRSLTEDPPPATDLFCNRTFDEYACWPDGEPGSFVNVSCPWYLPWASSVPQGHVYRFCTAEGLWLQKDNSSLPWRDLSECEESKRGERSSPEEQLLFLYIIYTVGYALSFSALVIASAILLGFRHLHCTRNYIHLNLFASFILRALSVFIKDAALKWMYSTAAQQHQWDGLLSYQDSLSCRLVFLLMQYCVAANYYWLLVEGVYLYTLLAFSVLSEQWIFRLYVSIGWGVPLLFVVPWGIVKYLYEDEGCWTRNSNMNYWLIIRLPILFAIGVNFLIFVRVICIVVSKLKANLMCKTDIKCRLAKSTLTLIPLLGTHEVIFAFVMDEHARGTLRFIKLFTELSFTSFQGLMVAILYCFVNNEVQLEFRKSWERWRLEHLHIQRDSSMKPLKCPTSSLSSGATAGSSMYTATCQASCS", "assay": "qHTS of GLP-1 Receptor Inverse Agonists (Inhibition Mode); further: nearly all actives have a fitted effect of over 55% in size", "settings": "HEK293 GLP-1R CRE-luciferase, luminescence, 24 h, GLP-1R form is constitutively active; series mostly up to 38.3 µM", "in_short": "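Readout was luciferase luminescence, measured 12 min after detection reagent at room temperature. Beforehand, GLP-1R reporter HEK293 cells had sat 12 h, then received compounds for 24 hr at 37 deg C.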"}
{"smiles": "Cc1ccc(C(O)c2ncc(-c3ccc(Cl)cc3)[nH]2)cc1F", "note": "(stereo unspecified)", "Potency": "inconclusive [inhibitor, full curve, poor fit]"}
{"smiles": "Oc1ccc(Cl)cc1C1=NNC(c2cccs2)C1", "note": "(stereo unspecified)", "Potency": "inconclusive [inhibitor, single point]"}
{"smiles": "O=C1c2cccc(Cl)c2C(=O)c2c1cccc2N1CCCC1", "Potency": "active: 6.31 µM"}
{"smiles": "CN(C)CCCNC(=O)/C=C/c1ccc(OCc2c(F)cccc2Cl)cc1", "Potency": "inconclusive [inhibitor, full curve, poor fit]"}
{"smiles": "COc1ccccc1C(=O)NCC1(c2ccccc2)CCCC1", "Potency": "inconclusive [inhibitor, full curve, poor fit]"}
{"smiles": "Cc1ccccc1-c1cnc(C(O)c2cc(Cl)cc(Cl)c2)[nH]1", "note": "(stereo unspecified)", "Potency": "inconclusive [inhibitor, single point]"}
{"smiles": "CN(Cc1ccccc1)C(=O)c1cc2cc(F)ccc2[nH]1", "Potency": "inconclusive [inhibitor, partial curve, poor fit]"}
{"smiles": "COc1cccc(-c2ccc3c(c2)C2CC3CCN2C(=O)c2ccc(Cl)cc2)c1", "note": "(stereo unspecified)", "Potency": "inconclusive [inhibitor, single point]"}
{"smiles": "Cc1cc(C)c(N(C(=O)CN2C(=O)c3ccccc3S2(=O)=O)C(C(=O)NCC2CCCO2)c2ccc(F)cc2)c(C)c1", "note": "(stereo unspecified)", "Potency": "inconclusive [inhibitor, partial curve, poor fit]"}
{"smiles": "COc1cc(NC(=S)NC(=O)CCc2ccccc2)cc(OC)c1", "Potency": "inconclusive [inhibitor, partial curve, poor fit]"}
{"smiles": "Cc1cc(NC(=O)CCS(=O)(=O)c2nc(-c3ccccc3)cc(C(F)(F)F)n2)no1", "Potency": "inconclusive [inhibitor, single point]"}
{"smiles": "CCC(C)c1ccc(N(C(=O)c2ccco2)C(C(=O)NC2CCCC2)c2cccnc2)cc1", "note": "(stereo unspecified)", "Potency": "inconclusive [inhibitor, partial curve, poor fit]"}
{"smiles": "Cc1nn(C)c2c1c(-c1ccccc1)cc(=O)n2Cc1ccccc1C#N", "Potency": "inactive"}
{"smiles": "CC(C)CN(CCCNC(=O)c1cc(-c2cccs2)nc2ccccc12)CC(C)C", "Potency": "inconclusive [inhibitor, full curve, poor fit]"}
{"smiles": "COc1ccc(-c2ccc(C(=O)Nc3cccc(N(C)C)c3)c3occc23)c(C)c1", "Potency": "inconclusive [inhibitor, partial curve]"}
{"smiles": "Cc1nc2nc(SCC(=O)N3CCOCC3)nn2c(C)c1Cc1c(F)cccc1Cl", "Potency": "inconclusive [inhibitor, single point]"}
{"smiles": "CCCCN(CC)CCCNC(=S)Nc1ccc2nc3n(c(=O)c2c1)CCCCC3", "Potency": "inconclusive [inhibitor, partial curve, poor fit]"}
{"smiles": "CC1(c2ccccc2Cl)NC(=O)N(CC(=O)Nc2ccc(N3CCCCC3)cc2)C1=O", "note": "(stereo unspecified)", "Potency": "inconclusive [inhibitor, partial curve, poor fit]"}
{"smiles": "Cc1cccc(OCCC(=O)Nc2ccc(C)c(S(=O)(=O)N3CCOCC3)c2)c1", "Potency": "inconclusive [inhibitor, single point]"}
{"smiles": "Cc1oc(-c2ccc(-c3ccccc3)cc2)nc1CN(C)C1CCOC1", "note": "(stereo unspecified)", "Potency": "inconclusive [inhibitor, single point]"}
{"smiles": "Cc1noc(NS(=O)(=O)c2ccc(NC(=O)CCn3c(=O)oc4ccccc43)cc2)c1C", "Potency": "inconclusive [inhibitor, partial curve, poor fit]"}
{"smiles": "Cc1cc(OCC(=O)Nc2c(C(=O)c3ccccc3)oc3ccccc23)cc(C)c1Cl", "Potency": "inactive"}
{"smiles": "CCOc1ccc(N(CC(=O)Nc2ccccc2OC)S(=O)(=O)c2ccccc2)cc1", "Potency": "inconclusive [inhibitor, full curve, poor fit]"}
{"smiles": "O=C(NCc1ccccc1Cl)c1ccc(S(=O)(=O)NCc2ccco2)cc1", "Potency": "inconclusive [inhibitor, partial curve, poor fit]"}
{"smiles": "CCCCSc1nnc(-c2ccc(C)cc2)c2ccccc12", "Potency": "inconclusive [inhibitor, partial curve, poor fit]"}
{"smiles": "CN(C(=O)c1cccc(NC(=O)Cc2ccc(NC(=O)C3CCN(C(=O)C4CC4)CC3)cc2)c1)C1CCCCC1", "Potency": "inactive"}
{"smiles": "Cc1ccc(S(=O)(=O)Nc2ccc(S(=O)(=O)Nc3nccs3)cc2)c([N+](=O)[O-])c1", "Potency": "inactive"}
{"smiles": "O=C(Nc1nnc([C@@H]2C[C@H](O)[C@@H](CO)O2)s1)Nc1ccccc1F", "Potency": "inconclusive [inhibitor, single point]"}
{"smiles": "O=C(CSc1nnc(-c2cccnc2)n1-c1ccccc1)N1CCN(c2ccc(F)cc2)CC1", "Potency": "inconclusive [inhibitor, partial curve]"}
{"smiles": "O=S(=O)(c1ccc(Br)cc1)N1CCCN(Cc2cccc(F)c2)CC1", "Potency": "inconclusive [inhibitor, single point]"}
{"smiles": "O=C(NCC(c1ccco1)N1CCc2ccccc21)c1c(F)cccc1F", "note": "(stereo unspecified)", "Potency": "inconclusive [inhibitor, partial curve, poor fit]"}
{"smiles": "O=C(c1ccc(Cl)cc1)N1CCC(c2nc3ccccc3o2)CC1", "Potency": "inactive"}
{"smiles": "Clc1ccccc1Cn1nc(-c2ccccc2)nc1-c1ccccc1", "Potency": "inconclusive [inhibitor, single point]"}
{"smiles": "CCOc1ccc(N(CC(=O)N2CCN(c3ccccc3)CC2)S(=O)(=O)c2c(C)noc2C)cc1", "Potency": "inconclusive [inhibitor, partial curve, poor fit]"}
{"smiles": "O=C(O)c1cccc(S(=O)(=O)Nc2ccc3[nH]c(=O)[nH]c3c2)c1", "Potency": "inactive"}
{"smiles": "CC(NC(=O)CCC(=O)N1CCN(S(=O)(=O)c2ccc(Cl)cc2)CC1)c1ccccc1", "note": "(stereo unspecified)", "Potency": "inconclusive [inhibitor, single point]"}
{"smiles": "Cc1ccsc1C(=O)OCc1nnc(-c2ccccc2)o1", "Potency": "inconclusive [inhibitor, single point]"}
{"smiles": "Cc1noc(C)c1CSCC(=O)Nc1ccc(OC(F)F)c(Cl)c1", "Potency": "inconclusive [inhibitor, single point]"}
{"smiles": "CNC(=O)c1ccccc1Nc1ccc(SC(F)F)cc1", "Potency": "inconclusive [inhibitor, single point]"}
{"smiles": "Cc1ccnc(OC(C(=O)O)C(OCc2ccccc2)(c2ccccc2)c2ccc(C(F)(F)F)cc2)n1", "note": "(stereo unspecified)", "Potency": "active: 10 µM"}
{"smiles": "Cc1ccccc1CN1CC2=C(CCN(Cc3ccccc3)C2=O)N2CCN=C12", "Potency": "inconclusive [inhibitor, full curve, poor fit]"}
{"smiles": "O=C1C2CCCCN2C(=O)N1CCCCN1CCN(c2ccc([N+](=O)[O-])cc2)CC1", "note": "(stereo unspecified)", "Potency": "inconclusive [inhibitor, partial curve]"}
{"smiles": "CCn1c(COc2cccc(C)c2)nnc1SCC(=O)Nc1cccc(C(=O)OC)c1", "Potency": "inconclusive [inhibitor, single point]"}
{"smiles": "FC(F)(F)C(F)(F)C(F)(F)c1nc2nc(Cl)c(Cl)nc2[nH]1", "Potency": "inconclusive [inhibitor, single point]"}
{"smiles": "Cc1cc(-n2c(C)cc(C(=O)CSc3nc(N)cc(=O)[nH]3)c2C)no1", "Potency": "inactive"}
{"smiles": "CCCCCc1c(-c2ccc(OC)c(OC)c2)ncn1CCc1ccccc1OC", "Potency": "inconclusive [inhibitor, single point]"}
{"smiles": "O=C(N/N=C/c1c(O)ccc2ccccc12)C(=O)N1CCCC1", "Potency": "inconclusive [inhibitor, partial curve, poor fit]"}
{"smiles": "CC(C)(C)S(=O)N1Cc2cc(C(=O)O)nc(-c3cccc(-c4cc5ccccc5o4)c3)c2[C@H]1CCO", "note": "(stereo partly specified)", "Potency": "inactive"}
{"smiles": "COc1ccc(NC(=O)c2c(NCc3cccs3)sc3c2CCCC3)c(OC)c1", "Potency": "inconclusive [inhibitor, single point]"}
{"smiles": "COc1cccc(C(=O)NC(=S)Nc2cccnc2)c1", "Potency": "inactive"}
{"smiles": "COc1ccc(-c2ccc(C(=O)NCc3ccco3)c3occc23)c(C)c1", "Potency": "inconclusive [inhibitor, single point]"}
{"smiles": "Cc1ccc(C2CC(c3cccs3)=NN2C(=O)CSC2=NCCS2)cc1", "note": "(stereo unspecified)", "Potency": "active: 4.47 µM"}
{"smiles": "CCOP(=O)(OCC)c1nc(-c2cccc3ccccc23)oc1NCc1ccc(OC)cc1", "Potency": "inconclusive [inhibitor, partial curve, poor fit]"}
{"smiles": "CCCOc1ccc(CNC(=O)c2ccc3c(c2)N(Cc2ccccc2)CCS3)cc1", "Potency": "inconclusive [inhibitor, partial curve, poor fit]"}
{"smiles": "O=S(=O)(NCCC1=CCCCC1)c1cccc(S(=O)(=O)N2CCOCC2)c1", "Potency": "inconclusive [inhibitor, partial curve, poor fit]"}
{"smiles": "CCCNC(=O)Cn1c(=O)/c(=C\\c2ccc(-c3ccc([N+](=O)[O-])cc3)o2)s/c1=C\\C(=O)C(C)(C)C", "Potency": "inactive"}
{"smiles": "CC(=O)OCCCNc1cc(SCc2ccco2)c2nonc2c1[N+](=O)[O-]", "Potency": "inconclusive [inhibitor, single point]"}
{"smiles": "Cc1ccc(S(=O)(=O)N2CCN(C(=O)C3COc4ccccc4O3)CC2)cc1C", "note": "(stereo unspecified)", "Potency": "inconclusive [inhibitor, partial curve, poor fit]"}
{"smiles": "Cc1ccc(C)c(NC(=O)CN(C)C(=O)c2cccc(Oc3ccccc3)c2)c1", "Potency": "inconclusive [inhibitor, partial curve, poor fit]"}
{"smiles": "COc1ccc(NC(=O)NCCN2CCN(c3cccc(Cl)c3)CC2)cc1", "Potency": "inconclusive [inhibitor, partial curve, poor fit]"}
{"smiles": "O=C(O)Cc1sc(-c2cccnc2)nc1-c1ccc(Br)cc1", "Potency": "inactive"}
